# In the supplement of paper PMC12217912:
# The list shows a part of the results. The full chains were built here from the parent and the listed change. Values near 0.05 are background.
# B1: TEV protease; numbered along this chain (parent)
# chain: MGESLFKGPRDYNPISSSICHLTNESDGHTTSLYGIGFGPFIITNKHLFRRNNGTLVVQSLHGVFKVKDTTTLQQHLVDGRDMIIIRMPKDFPPFPQKLKFREPQREERICLVTTNFQTKSMSSMVSDTSCTFPSGDGIFWKHWIQTKDGQCGSPLVSTRDGFIVGIHSASNFTNTNNYFTSVPKNFMELLTNQEAQQWVSGWRLNADSVLWGGHKVFMVKPEEPFQPVKEATQL
# Variants of: B1
# Assay: raw area under fraction-flipped curve 0-4 h after induction (AUC4h, not background-subtracted), DNA-recorder readout of cleavage of the substrate (dimensionless); higher = more cleavage of the substrate by the protease variant
# Details: temperature: 34 °C; time window: 0-4 h after rhamnose induction
# Description: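 In vivo DNA recorder in E. coli TOP10(DE3) ΔrhaA at 34 °C. Each TEVp single-site mutant (parent TEVp 0) is paired with a single-site variant of the 7-mer TEVs (canonical ENLYFQ|S). The substrate sits between flexible linkers in a Bxb1-sfGFP-TEVs-SsrA fusion, so cleavage stabilises Bxb1 and speeds flipping of a recombination array, read by NGS. The value is the raw area under the fraction-flipped curve over 0-4 h after rhamnose induction (AUC4h), with ≥20 reads per time point. It is not background-subtracted; inactive controls average about 0.047.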
# 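Further: Bxb1 expression induced with 0.2% (w/v) L-rhamnose at OD600 near 0.5, cultures sampled hourly, flipped fraction per protease–substrate barcode pair counted by paired-end Illumina sequencing.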
Variant,area with substrate ANLYFQS,area with substrate FNLYFQS,area with substrate HNLYFQS,area with substrate INLYFQS,area with substrate KNLYFQS,area with substrate LNLYFQS,area with substrate MNLYFQS,area with substrate NNLYFQS,area with substrate PNLYFQS,area with substrate QNLYFQS
P222W,0.0676,0.0537,0.0511,0.066,0.0544,0.0627,0.058,0.069,0.0561,0.0865
F218R,0.0584,–,–,–,0.0622,–,–,0.0518,0.0613,–
M219A,0.0599,–,0.0503,–,–,–,–,0.0527,0.0792,0.0513
M219F,0.0905,–,0.0793,0.0934,0.0741,–,0.103,–,0.0638,–
L235H,0.0668,–,–,0.0724,0.0487,–,–,0.0807,0.0733,–
H215V,0.0631,–,–,0.0586,0.0613,0.0444,–,–,–,–
H215A,0.0618,–,0.0578,–,0.0429,–,–,0.0604,0.0582,–
E195Y,0.0596,–,–,–,–,–,–,–,–,–
N193S,0.0677,0.117,–,0.0554,–,–,–,–,0.0841,–
W212E,0.0523,–,0.0542,0.0612,0.0598,0.0322,0.0619,0.0647,–,0.0839
Q197Y,0.062,–,–,–,0.108,–,–,0.0647,–,–
D11E,–,0.0588,0.0626,0.0594,0.0704,0.0861,0.0533,0.0682,0.0722,0.0674
G8C,–,–,–,–,–,–,–,–,0.0797,–
G8W,–,–,0.0574,–,0.0744,–,–,–,–,–
A207C,0.0623,–,0.0639,–,–,0.0641,–,0.0699,0.0712,–
A207I,0.0616,–,0.0584,–,–,–,–,–,0.0704,–
A207M,0.0623,0.0575,0.0546,0.059,–,–,–,–,–,0.0672
S209I,0.0652,–,–,–,–,0.0591,0.0643,0.0727,0.0723,–
S209P,0.077,0.0478,–,–,0.0582,–,0.058,–,0.0568,0.0542

Variant,area with substrate ANLYFQS,area with substrate FNLYFQS,area with substrate HNLYFQS,area with substrate INLYFQS,area with substrate KNLYFQS,area with substrate LNLYFQS,area with substrate MNLYFQS,area with substrate NNLYFQS,area with substrate PNLYFQS,area with substrate QNLYFQS
Y12I,–,0.0836,0.069,0.0696,0.076,0.0628,0.0541,0.0753,0.0741,–
F187P,0.0653,–,0.056,0.0361,0.0218,0.0656,0.0445,–,–,–
E231W,0.0649,–,0.0647,–,0.082,0.0626,–,–,0.0534,–
G202C,0.0585,–,0.0568,–,0.0499,–,0.0639,0.0641,0.057,–
G202F,0.0617,0.0657,–,–,–,0.0629,0.0609,0.0591,–,0.068
G202K,0.054,–,–,–,0.066,–,–,–,0.0402,–
P228F,0.0533,–,–,–,–,–,–,0.0661,–,0.0683
V210Y,0.0507,0.0713,0.0594,0.0639,0.0449,–,0.0646,–,–,–
S4L,–,0.108,0.0717,0.071,0.0614,0.0529,0.0549,0.0573,0.0679,0.0705
A232L,0.0499,0.0639,0.0635,0.0701,0.0707,0.0643,0.0623,–,0.0668,–
E189K,0.0668,0.0673,0.0588,–,–,–,0.0659,–,–,0.0693
L205V,0.0269,–,0.0502,–,–,0.0655,0.0718,–,–,–
F226D,0.069,–,0.0624,–,–,–,0.0745,0.0683,–,–
E223Q,0.0694,0.0349,–,0.0605,–,–,0.0826,0.0755,–,–
V217W,0.0765,0.0751,0.0652,0.055,0.0506,0.0435,–,0.0649,0.0487,–
Q234G,0.0519,–,0.072,0.0072,–,–,0.0507,0.0909,–,–
G214S,0.0614,–,–,0.0532,0.0656,0.0561,–,–,–,–
G214C,0.0691,0.0667,–,0.0534,–,–,–,–,–,–

# Same assay, conditions: temperature: 34 °C; time window: 0-4 h after rhamnose induction
Variant,area with substrate TNLYFQS,area with substrate VNLYFQS,area with substrate WNLYFQS,area with substrate YNLYFQS,area with substrate GNLYFQS,area with substrate SNLYFQS,area with substrate DNLYFQS,area with substrate RNLYFQS,area with substrate CNLYFQS
P222W,0.0595,0.0776,0.0476,0.0555,–,–,–,–,–
F218R,0.0599,–,–,–,–,–,–,–,–
M219A,0.0561,0.0558,–,0.0621,0.0605,–,–,–,–
M219F,0.0647,–,–,0.0744,0.0623,0.0583,–,–,–
L235H,0.0279,0.0617,0.0716,–,0.0368,0.0705,–,–,–
H215V,0.0657,0.0614,–,–,–,0.0598,0.0528,0.0584,–
H215A,0.0503,0.1,0.0707,–,0.0645,0.0638,–,0.0483,–
E195Y,0.0703,–,0.0527,0.0561,0.0686,0.0709,–,–,–
N193S,–,–,0.0643,0.0599,–,0.0659,–,–,–
W212E,0.0504,0.0527,0.0646,0.0535,–,0.0647,–,0.0849,–
Q197Y,0.0508,–,–,–,–,–,–,–,–
D11E,0.0652,–,0.0585,0.0628,0.0754,0.0509,0.0717,0.0638,0.0643
G8C,–,–,–,–,–,–,0.0582,–,0.0574
G8W,0.0655,0.0544,0.0569,0.0697,0.0612,0.0669,–,–,0.109
A207C,0.0643,–,0.0677,0.0657,0.0662,–,–,–,–
A207I,0.08,–,0.0587,0.067,–,0.0652,0.0643,–,–
A207M,–,–,0.0356,–,0.0618,–,–,–,–
S209I,–,–,0.151,0.0545,–,–,–,–,–
S209P,0.058,–,0.0595,–,–,0.0721,–,–,–

Variant,area with substrate TNLYFQS,area with substrate VNLYFQS,area with substrate WNLYFQS,area with substrate YNLYFQS,area with substrate GNLYFQS,area with substrate SNLYFQS,area with substrate DNLYFQS,area with substrate RNLYFQS,area with substrate CNLYFQS
Y12I,0.0569,0.0612,0.056,0.0576,0.0687,0.0658,0.0696,0.068,0.0704
F187P,0.0572,0.0597,0.0548,0.0446,–,–,–,–,–
E231W,0.0676,–,0.0564,0.0669,–,0.0567,–,–,–
G202C,0.0586,–,0.0574,–,0.0605,0.0617,–,–,–
G202F,0.0522,–,0.067,0.053,0.05,–,–,–,–
G202K,–,–,–,–,0.0572,–,–,–,–
P228F,0.0665,0.0758,0.0572,0.0642,–,–,–,–,–
V210Y,0.0415,–,0.0443,0.0489,0.0519,0.0544,–,–,–
S4L,0.0585,0.0646,0.0632,0.0723,0.0591,0.058,0.0728,0.0631,0.0644
A232L,–,–,0.0665,0.0644,0.0739,–,–,–,–
E189K,–,–,0.0678,0.0637,0.0728,–,–,–,–
L205V,0.073,–,0.0527,–,–,–,0.0617,–,–
F226D,0.0992,0.0683,0.0791,–,0.0678,0.0811,–,–,–
E223Q,–,–,0.063,0.0896,–,–,–,–,–
V217W,–,–,0.0599,–,–,–,–,–,–
Q234G,–,–,0.0577,–,0.0706,0.0766,–,–,–
G214S,0.0439,–,0.0688,0.0518,–,0.0489,–,–,–
G214C,0.065,–,–,–,0.0757,–,–,–,–
